Source: patent publication US20100310561A1 (Boehringer Ingelheim, published 2010)

T1: human natriuretic peptide receptor A (NPRA) (human, UniProt P16066 33-1061)
T1 sequence (looked up): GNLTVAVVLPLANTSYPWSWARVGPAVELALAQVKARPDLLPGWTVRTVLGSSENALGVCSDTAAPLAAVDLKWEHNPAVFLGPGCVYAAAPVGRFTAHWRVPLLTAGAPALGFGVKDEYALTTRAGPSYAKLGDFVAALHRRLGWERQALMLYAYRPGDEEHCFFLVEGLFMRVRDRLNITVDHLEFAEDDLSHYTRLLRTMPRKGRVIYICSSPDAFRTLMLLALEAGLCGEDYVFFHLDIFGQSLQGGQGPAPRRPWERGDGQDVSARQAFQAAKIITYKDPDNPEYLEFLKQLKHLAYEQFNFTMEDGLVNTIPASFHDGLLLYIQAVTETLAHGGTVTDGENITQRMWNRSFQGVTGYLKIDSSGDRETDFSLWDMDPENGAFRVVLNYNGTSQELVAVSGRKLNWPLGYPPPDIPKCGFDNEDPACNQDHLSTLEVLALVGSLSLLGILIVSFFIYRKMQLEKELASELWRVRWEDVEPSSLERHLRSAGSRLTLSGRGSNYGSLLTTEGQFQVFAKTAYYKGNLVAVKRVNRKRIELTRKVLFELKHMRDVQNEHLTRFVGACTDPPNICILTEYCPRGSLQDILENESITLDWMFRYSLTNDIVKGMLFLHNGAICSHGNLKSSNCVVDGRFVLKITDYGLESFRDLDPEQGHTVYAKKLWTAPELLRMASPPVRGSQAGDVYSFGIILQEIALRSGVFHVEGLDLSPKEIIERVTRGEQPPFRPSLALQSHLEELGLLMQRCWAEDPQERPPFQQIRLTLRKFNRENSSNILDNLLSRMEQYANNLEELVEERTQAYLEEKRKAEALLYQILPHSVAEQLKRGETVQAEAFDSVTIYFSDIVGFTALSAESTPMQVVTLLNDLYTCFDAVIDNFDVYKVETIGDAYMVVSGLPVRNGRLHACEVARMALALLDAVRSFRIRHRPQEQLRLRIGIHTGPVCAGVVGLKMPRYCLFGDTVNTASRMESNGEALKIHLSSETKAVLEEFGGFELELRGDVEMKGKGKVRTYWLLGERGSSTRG

T2: canine NPRA (canine, UniProt A0A8I3MHU3 32-1060)
T2 sequence: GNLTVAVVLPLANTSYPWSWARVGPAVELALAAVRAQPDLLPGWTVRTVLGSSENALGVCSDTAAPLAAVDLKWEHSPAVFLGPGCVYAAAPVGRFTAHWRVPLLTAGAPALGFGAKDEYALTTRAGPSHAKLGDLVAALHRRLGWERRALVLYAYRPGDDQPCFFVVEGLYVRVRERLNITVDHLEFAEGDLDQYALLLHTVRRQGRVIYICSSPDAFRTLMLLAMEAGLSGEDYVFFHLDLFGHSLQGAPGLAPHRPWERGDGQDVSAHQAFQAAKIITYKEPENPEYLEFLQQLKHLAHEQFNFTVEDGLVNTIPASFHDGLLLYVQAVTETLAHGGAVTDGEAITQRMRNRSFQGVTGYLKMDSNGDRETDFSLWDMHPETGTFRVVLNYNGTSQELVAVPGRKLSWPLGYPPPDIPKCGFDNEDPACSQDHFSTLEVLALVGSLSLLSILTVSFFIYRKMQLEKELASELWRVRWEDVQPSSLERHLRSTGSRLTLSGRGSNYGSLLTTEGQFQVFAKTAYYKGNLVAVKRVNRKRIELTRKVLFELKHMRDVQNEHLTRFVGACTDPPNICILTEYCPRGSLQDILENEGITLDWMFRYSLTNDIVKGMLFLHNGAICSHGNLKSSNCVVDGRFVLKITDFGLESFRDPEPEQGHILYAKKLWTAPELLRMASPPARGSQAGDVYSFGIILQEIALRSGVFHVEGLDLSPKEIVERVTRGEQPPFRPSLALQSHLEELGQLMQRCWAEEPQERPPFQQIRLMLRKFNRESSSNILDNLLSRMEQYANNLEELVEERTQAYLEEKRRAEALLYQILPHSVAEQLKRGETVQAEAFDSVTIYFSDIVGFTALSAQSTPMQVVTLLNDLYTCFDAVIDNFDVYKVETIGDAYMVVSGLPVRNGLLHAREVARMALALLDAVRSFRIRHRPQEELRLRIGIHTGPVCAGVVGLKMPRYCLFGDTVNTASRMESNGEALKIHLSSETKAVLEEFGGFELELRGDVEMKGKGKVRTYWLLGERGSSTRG

T3: rat NPRA (rat, UniProt P18910 29-1057)
T3 sequence (looked up): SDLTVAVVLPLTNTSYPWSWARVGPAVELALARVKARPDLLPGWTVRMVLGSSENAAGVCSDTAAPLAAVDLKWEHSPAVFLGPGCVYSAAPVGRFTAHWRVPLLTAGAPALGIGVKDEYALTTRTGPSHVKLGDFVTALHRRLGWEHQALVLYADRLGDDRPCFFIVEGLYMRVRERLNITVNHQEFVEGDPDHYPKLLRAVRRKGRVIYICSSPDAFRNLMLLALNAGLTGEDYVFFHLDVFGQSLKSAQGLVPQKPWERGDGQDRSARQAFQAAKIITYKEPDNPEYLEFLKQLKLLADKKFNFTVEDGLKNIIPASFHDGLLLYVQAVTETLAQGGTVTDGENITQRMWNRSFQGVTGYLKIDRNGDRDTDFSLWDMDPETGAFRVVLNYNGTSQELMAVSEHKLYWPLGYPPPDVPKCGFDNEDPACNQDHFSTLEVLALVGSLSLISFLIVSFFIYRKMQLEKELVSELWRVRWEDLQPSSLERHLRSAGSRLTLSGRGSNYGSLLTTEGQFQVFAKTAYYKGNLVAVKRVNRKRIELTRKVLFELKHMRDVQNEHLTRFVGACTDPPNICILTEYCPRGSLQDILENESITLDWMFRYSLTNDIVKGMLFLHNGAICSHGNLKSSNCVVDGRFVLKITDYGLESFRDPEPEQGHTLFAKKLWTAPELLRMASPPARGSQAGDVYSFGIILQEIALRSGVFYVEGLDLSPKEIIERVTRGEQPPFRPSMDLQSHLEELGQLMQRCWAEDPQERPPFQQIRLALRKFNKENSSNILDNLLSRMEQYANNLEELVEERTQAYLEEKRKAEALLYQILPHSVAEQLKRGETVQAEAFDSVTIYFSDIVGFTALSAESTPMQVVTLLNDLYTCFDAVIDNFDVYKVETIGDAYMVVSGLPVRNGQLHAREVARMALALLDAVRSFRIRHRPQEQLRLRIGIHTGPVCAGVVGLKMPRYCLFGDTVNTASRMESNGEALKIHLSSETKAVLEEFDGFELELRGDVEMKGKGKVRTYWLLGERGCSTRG


What was measured:
Test in all cases: cell-based or functional assay
[1] = molecular target: T1, human natriuretic peptide receptor A …
monkey NPRA = monkey NPRA (monkey)
canine NPRA = molecular target: T2, canine NPRA
rat NPRA = molecular target: T3, rat NPRA

cGMP EC50 (nM) Lab 1 (Results 1) [1] | cGMP EC50 (nM) Lab 1 (Results 2) [1] | cGMP EC50 (nM) Lab 2 (Results 1) [1] | cGMP EC50 (nM) Monkey NPRA (monkey NPRA) | cGMP EC50 (nM) Dog NPRA (canine NPRA) | cGMP EC50 (nM) Rat NPRA (rat NPRA) | Binder
128 nM | 118 nM | 88 nM | – | – | – | Construct 9, ANPXY-L2-Fc1AB linked to a second ANPXY-L2-Fc1AB (semi-synthetic dimer) (Fc fusion) SLRRSSCFGGRMDRIGAQSGLGCNSFRYGG[not shown - human IgG1 Fc]
– | – | 14 nM | – | – | – | Construct 14, ANPXY-L5a-Fc1AB linked to a second ANPXY-L5a-Fc1AB (semi-synthetic, 16 aa linker) (Fc fusion) SLRRSSCFGGRMDRIGAQSGLGCNSFRYGSGGSGGSGGSGGSGG[not shown - human IgG1 Fc]

Continued, binder first:

Binder | cGMP EC50 (nM) Lab 1 (Results 1) [1] | cGMP EC50 (nM) Lab 1 (Results 2) [1] | cGMP EC50 (nM) Lab 2 (Results 1) [1] | cGMP EC50 (nM) Monkey NPRA (monkey NPRA) | cGMP EC50 (nM) Dog NPRA (canine NPRA) | cGMP EC50 (nM) Rat NPRA (rat NPRA)
Construct 2, ANPXY-L4-Fc1AB (recombinant) (Fc fusion, also called ANP28-11aa-hFc1) SLRRSSCFGGRMDRIGAQSGLGCNSFRYGGSGGSGGSGG[not shown - human IgG1 Fc] | – | – | – | 27 nM | 31 nM | 55 nM
Construct 3, ANPXY-L6-Fc1AB (recombinant) (Fc fusion, also called ANP28-20aa-hFc1) SLRRSSCFGGRMDRIGAQSGLGCNSFRYGGSGGSGGSGGSGGSGGSGG[not shown - human IgG1 Fc] | – | – | – | 12 nM | 11 nM | 25 nM
